Experimental data reported in PubChem BioAssay AID624418 (National Center for Advancing Translational Sciences (NCATS), 2012).
Among all 410,000 compounds or so, about 530 (0.13%) were called active. The shares of active, inactive and inconclusive entries below differ from those in the screen. The call rests on the fitted dose curve; in most records, active means well fitted inhibition curve with a large enough effect; inconclusive means small, poorly fitted or top-dose-only effect, or another doubt; inactive means no such curve, though single readings can be large or run the other way. Potencies beside an inconclusive call are fits to weak or partial responses and may not hold up.

Test: qHTS of GLP-1 Receptor Inverse Agonists: Cytotox Screen
Conditions: HEK293 cAMP-luciferase reporter cells, luminescence, 24 h; activity change, negative = inhibition: at 38.3 µM (top of the series) unless noted
Summary of the method: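 Compound-treated cells are incubated 24 hr at 37 deg C under 5% CO2 after a 12 hour attachment period, then luciferase detection reagent is added and luminescence is measured following 12 min at room temperature; lowered signal indicates toxicity.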
On the % scale 0 is the no-effect control and ±100 the full control effect; potency means the concentration at half of the fitted maximal effect.

Row | SMILES | Potency | activity change, negative = inhibition
1 | CN(C)C1(c2nnnn2CCOC(=O)Nc2ccc(Cl)cc2)CCCCC1 | inactive | –
2 | O=c1oc2ccccc2n1CSC1=NCCS1 | inconclusive: 28.2 µM [inhibitor, single point] | –
3 | C=C1C(=O)O[C@H]2[C@H]1[C@H](OC(=O)CC(=O)O[C@@H]1C[C@@H](C)[C@@H]3C=CC(=O)[C@@]3(C)[C@H]3OC(=O)C(=C)[C@H]13)C[C@@H](C)[C@H]1C=CC(=O)[C@]12C | inconclusive: 28.2 µM [inhibitor, single point] | –
4 | Cc1oc(-c2cccc(Cl)c2)nc1CN1CCCC(C(=O)NC(C)c2ccc3c(c2)OCCO3)C1 (stereo not drawn) | inconclusive: 10 µM [inhibitor, partial curve, poor fit] | –
5 | CCOc1cc(/C=C2\SC(=S)N(NC(=O)c3cccnc3)C2=O)ccc1O | active: 11.2 µM | –
6 | COc1cc(OC)c(C2Nc3cccc4cccc(c34)N2)c(OC)c1 | inconclusive: 22.4 µM [inhibitor, single point] | –
7 | CCCCN(CC(O)COc1cccc(C)c1)CC(O)COc1cccc(C)c1 (stereo not drawn) | inconclusive: 20 µM [inhibitor, single point] | –
8 | C[n+]1c2n(c3ccccc31)N=C(c1cc(C(C)(C)C)c(O)c(C(C)(C)C)c1)CS2 | inconclusive: 14.1 µM [inhibitor, single point] | –
9 | O=c1c2ccc(Cl)cc2[nH]c(=S)n1-c1cccnc1 | – | inconclusive: -40.6% [inhibitor] [at 7.66 µM]
10 | COc1ccc(N(C)S(=O)(=O)c2cccc(C(=O)Nc3nc4ccccc4[nH]3)c2)cc1 | inconclusive: 28.2 µM [inhibitor, single point] | –
11 | ClCCN(CCCl)c1ccc(C2=NCCc3ccccc32)cc1 | inconclusive: 11.2 µM [inhibitor, single point] | –
12 | ClCCN(CCCl)c1ccc(C=NNc2ncccn2)cc1 | inconclusive: 7.94 µM [inhibitor, partial curve] | –
13 | O=C(c1ccc(Cl)s1)N1CCCC(N2CCN(c3ccc(F)cc3)CC2)C1 (stereo not drawn) | inconclusive: 28.2 µM [inhibitor, single point] | –
14 | CCOC(=O)c1ccc(N2C(=O)c3[nH]nc(-c4ccccc4)c3C2c2ccc(CC)cc2)cc1 (stereo not drawn) | inconclusive: 12.6 µM [inhibitor, partial curve, poor fit] | –
15 | CCc1cccc2sc(N3CCN(C(=O)c4ccc([N+](=O)[O-])o4)CC3)nc12 | inconclusive: 28.2 µM [inhibitor, single point] | –
16 | O=C(Nc1ccc(Cl)c(Cl)c1)Nc1ccc(Br)cc1F | inconclusive: 28.2 µM [inhibitor, single point] | –
17 | Cc1cc(NCCN)nc2ccccc12 | inactive | –
18 | N=c1n(Cc2ccc(Cl)cc2)c2ccccc2n1CC(O)COc1ccccc1 (stereo not drawn) | inconclusive: 28.2 µM [inhibitor, single point] | –
19 | Cc1ccc(OCC(=O)N/N=C/c2ccc([N+](=O)[O-])o2)cc1 | inconclusive: 11.2 µM [inhibitor, single point] | –

Row | SMILES | Potency | activity change, negative = inhibition
20 | CCOC(=O)[C@]12Cc3cc(OC)ccc3[C@H]1N(C1CCCCC1)C(=O)c1ccccc12 | active: 10 µM | –
21 | C/C(=N\N1CCN(C)CC1)c1c(O)n(Cc2ccccc2)c(=O)[nH]c1=O | inactive | –
22 | CC(C)C[C@@H](CN1CCC[C@@H]1CN1C(=S)NC[C@@H]1Cc1ccc(O)cc1)N1C[C@H](Cc2ccc(O)cc2)N(CC2CCCCCC2)C1=S | inconclusive: 28.2 µM [inhibitor, single point] | –
23 | CC(C)N1C(=O)/C(=C/C=C/c2ccco2)C(=O)N(Cc2ccco2)C1=O | inconclusive: 28.2 µM [inhibitor, single point] | –
24 | C[C@@H]1CN([C@H](C)CO)C(=O)c2cc(NC(=O)Nc3ccc(C(F)(F)F)cc3)ccc2O[C@H]1CN(C)C(=O)Nc1ccc(F)cc1 | inconclusive: 28.2 µM [inhibitor, single point] | –
25 | Cc1ccc(NC(=O)CNC(=O)c2cccc(C)c2)nc1 | inconclusive: 11.2 µM [inhibitor, single point] | –
26 | COc1ccc(-c2cc(CNc3nc(NC(C)C)nc4cc(-c5ccccc5)sc34)on2)cc1 | inconclusive: 28.2 µM [inhibitor, single point] | –
27 | FC(F)(F)c1cccc(C2NCc3ccccc3-n3cccc32)c1 (stereo not drawn) | inconclusive: 28.2 µM [inhibitor, single point] | –
28 | Cc1nc(N2CCN(Cc3ccc4c(c3)OCO4)CC2)c2oc3ccccc3c2n1 | inconclusive: 28.2 µM [inhibitor, single point] | –
29 | CCOP(=O)(/C(C#N)=C(\C)O)c1ccccc1 (stereo not drawn) | inconclusive: 31.6 µM [inhibitor, partial curve, poor fit] | –
30 | O=C(Nc1cccc(-c2csc(Nc3cccc(C(F)(F)F)c3)n2)c1)c1ccccc1 | inconclusive: 28.2 µM [inhibitor, single point] | –
31 | CC(C)(C)c1ccc(C(=O)Nc2ccc3nc(SCC(=O)N4CCCC4)sc3c2)cc1 | inconclusive: 10 µM [inhibitor, partial curve, poor fit] | –
32 | Cc1ccc2sc(N(CCCN(C)C)C(=O)CCS(=O)(=O)c3ccccc3)nc2c1C | inconclusive: 31.6 µM [inhibitor, single point] | –
33 | Cc1ccc(-c2cc(-c3ccc(C)cc3)[n+](-c3ccccc3)c(-c3ccc(C)cc3)c2)cc1 | inconclusive: 3.55 µM [inhibitor, full curve] | –
34 | O=C(Nc1ccccc1)NN(C(=O)CCl)c1ccccc1 | inconclusive: 10 µM [inhibitor, partial curve, poor fit] | –
35 | CCN(CC)c1ccc(/C=C2\C(=O)NC(=S)N(c3ccc(OC)cc3OC)C2=O)o1 | inconclusive: 10 µM [inhibitor, partial curve, poor fit] | –
36 | N#CC1=C(N)Oc2c(c(=O)sc3ccccc23)C1c1cccnc1 (stereo not drawn) | – | inactive: 6.58% [at 7.66 µM]
37 | CCOC(=O)c1sc(NC(=O)Nc2cccc(Cl)c2)cc1C | inconclusive: 11.2 µM [inhibitor, partial curve] | –
38 | CSc1nnc([C@@H](N)Cc2ccccc2)o1 | inconclusive: 3.16 µM [inhibitor, full curve, poor fit] | –
